Laboratory results: PubChem BioAssay AID1347434 (National Center for Advancing Translational Sciences (NCATS), 2020)
The campaign covered roughly 1,200 compounds. About 30 (2%) were called active. The shares of active, inactive and inconclusive entries below differ from those in the screen. Calls follow the shape of the dose curve; as a rule, active = well fitted inhibition curve with a large enough effect; inconclusive = small, poorly fitted or top-dose-only effect; inactive = flat fitted curve, though single readings scatter. Where the call is inconclusive, the potency comes from a doubtful curve fit.

Target: Single-stranded DNA cytosine deaminase (Homo sapiens) (UniProt Q9GZX7)
Experiment: Confirmatory qHTS assay for inhibitors of Activation Induced Cytidine Deaminase (AID): AID signals
Conditions: recombinant AID, FRET deamination/UDG coupled fluorescence, 4 h; series mostly up to 115 µM
Procedure, shortened: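 Read 1 (AID) was measured at 540 ex/590 em after a 30 min NaOH step. The reaction was AID (1 uM, 4/3x stock) with UDG, compound at final 7.32 nM - 114 uM for 10 min, then DJC20/DJC23 substrate for 4 hr at room temperature. A UDG read at 560/665 serves as counterscreen.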
Potency is read from the fitted curve at half-maximal effect; tags tell the direction and shape of the fitted curve.

Chain of UniProt Q9GZX7 (Q9GZX7 whole entry, looked up): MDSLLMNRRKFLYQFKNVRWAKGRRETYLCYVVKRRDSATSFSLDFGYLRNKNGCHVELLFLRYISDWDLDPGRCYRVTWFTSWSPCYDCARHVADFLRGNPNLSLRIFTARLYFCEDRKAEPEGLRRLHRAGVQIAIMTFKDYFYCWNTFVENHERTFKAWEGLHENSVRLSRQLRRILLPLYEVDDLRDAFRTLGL

Potency, inconclusive:
CCOc1ccccc1N(CC)C(=O)c1cc2c(=O)n(CC)c3ccccc3c2s1 31.6 µM [inhibitor, single point]
Cc1ccc2c(C)c(C(=O)NCC(c3ccc(Cl)cc3)N3CCOCC3)oc2c1 (stereo not given) 17.8 µM [inhibitor, partial curve, poor fit]
CCN(CC)CCCC(C)Nc1c2ccc(Cl)cc2nc2ccc(OC)cc12 (stereo not given) 28.2 µM [inhibitor, partial curve]
Cc1ccc(-c2n[nH]c3c2C(c2cccc(O)c2)N(c2ccc(C(=O)O)cc2)C3=O)cc1 (stereo not given) 22.4 µM [inhibitor, partial curve, poor fit]
Oc1ccc(NCc2ccccc2OCc2ccccc2F)cc1 56.2 µM [inhibitor, single point]
CCOc1ccc(C(=O)c2cn(Cc3cccc(OC)c3)c3cc4c(cc3c2=O)OCO4)cc1 15.8 µM [inhibitor, partial curve, poor fit]
Cc1cccc(NC(=O)c2c(NC(=O)C(F)(F)F)sc3c2CCCCC3)c1 35.5 µM [inhibitor, partial curve]
CCCCN(CC)CCNC(=O)c1cc2c(=O)oc3ccc(C)cc3c2s1 28.2 µM [inhibitor, partial curve]
CC1CCCN(C(=O)c2cc3c(Cl)nc4ccccc4c3s2)C1 (stereo not given) 28.2 µM [inhibitor, partial curve, poor fit]
Cc1ccc(C)c(OCCn2cc(C(=O)c3ccco3)c3ccccc32)c1 28.2 µM [inhibitor, partial curve, poor fit]
CCOC(=O)c1cnn(-c2cccc(Cl)c2)c1C1CCN(C(=O)OC(C)(C)C)CC1 1.78 µM [inhibitor, partial curve, poor fit]
CCC1=Nc2cc(C(=O)N3CCC(C)CC3)ccc2Sc2ccc(C)cc21 35.5 µM [inhibitor, partial curve, poor fit]
Cc1ccsc1CN(Cc1ccco1)C(=O)c1ccc(Cl)cc1 25.1 µM [inhibitor, partial curve, poor fit]
CCOc1ccc(-n2c(Cc3ccccc3)nnc2SCc2nc(-c3ccccc3OC)no2)cc1 35.5 µM [inhibitor, partial curve, poor fit]
CCOc1ccc(CCNC(=O)c2ccc(Cn3c(=O)c4cccn4c4cccnc43)cc2)cc1 35.5 µM [inhibitor, partial curve, poor fit]
Cc1ccc2c(c1)-c1c(c(C(=O)N3CCN(c4cc(C)ccc4C)CC3)nn1C)CS2 14.1 µM [inhibitor, partial curve]
Cc1cccc(C(=O)Nc2nc3nc(-c4ccccc4)cc(=O)n3[nH]2)c1 44.7 µM [inhibitor, partial curve]
Oc1ccc(NCc2ccc(OCc3ccccc3)cc2)cc1 20 µM [inhibitor, partial curve, poor fit]
Cc1oc(-c2cccc(Cl)c2)nc1CSCC(=O)NCc1ccccc1Cl 31.6 µM [inhibitor, partial curve, poor fit]
COc1ccc(OC)c(/C=C(\C#N)c2nc3ccccc3c(=O)[nH]2)c1 35.5 µM [inhibitor, partial curve]
CCCN(CCC)CCCNC(=O)c1cn(CC)c2ccc(S(=O)(=O)N(C)C3CCCCC3)cc2c1=O 28.2 µM [inhibitor, partial curve, poor fit]
CCCn1c2ccccc2c2cnn(CC(=O)N(C)c3ccccc3CC)c(=O)c21 28.2 µM [inhibitor, partial curve, poor fit]
CC(=O)N1CCc2c(sc3c2c(=O)n(Cc2ccccc2)c(=O)n3Cc2ccccc2Cl)C1 35.5 µM [inhibitor, single point]
Cc1nc2c(C(=O)NCCC(C)C)cnn2c(C)c1Cc1c(F)cccc1Cl 35.5 µM [inhibitor, partial curve]
COc1cc(C(=O)Nc2ccc(OCc3cc(=O)n4cccc(C)c4n3)cc2)cc(OC)c1OC 31.6 µM [inhibitor, partial curve]
CCCN(CCC)CC(O)Cn1cc(/C=C/C(=O)c2ccc(OC)cc2)c2ccccc21 (stereo not given) 31.6 µM [inhibitor, single point]
COc1ccc(C(=O)c2cn(Cc3cccc(C)c3)c3cc4c(cc3c2=O)OCO4)cc1 20 µM [inhibitor, partial curve, poor fit]
Cc1cc(C)c(OCC(=O)N(Cc2ccco2)Cc2ccco2)c(C)c1 7.08 µM [inhibitor, full curve]
CC1CCCN(CCCNC(=O)c2cc3c(Cl)nc4ccccc4c3s2)C1 (stereo not given) 39.8 µM [inhibitor, partial curve]
COc1cc2nc(NC(=O)c3ccc(S(=O)(=O)N4CCc5ccccc54)cc3)sc2cc1OC 35.5 µM [inhibitor, single point]
CCN(CCCNC(=O)c1cc2c(=O)n(CC)c3ccccc3c2s1)Cc1ccccc1 35.5 µM [inhibitor, single point]
COc1ccc(-c2cn3c(n2)sc2cc(C(=O)NCCCN4CCCCC4)ccc23)cc1 31.6 µM [inhibitor, single point]
CSc1ccc2c(c1)N(CCC1CCCCN1C)c1ccccc1S2 (stereo not given) 31.6 µM [inhibitor, partial curve, poor fit]
CC(C)(Sc1ccc(CCN(CCCCC2CCCCC2)C(=O)NC2CCCCC2)cc1)C(=O)O 56.2 µM [inhibitor, single point]
O=C(COc1ccc(Cl)cc1)N(Cc1ccco1)Cc1ccco1 31.6 µM [inhibitor, partial curve, poor fit]
CCN(CC)c1cc(C)c2cc(NC(=O)c3cc(OC)cc(OC)c3)ccc2n1 22.4 µM [inhibitor, partial curve, poor fit]
CN(CCCNC(=O)c1cc2c(Cl)nc3ccccc3c2s1)Cc1ccccc1 39.8 µM [inhibitor, single point]
Cc1ncc(CO)c2c1Oc1nc(-c3ccccc3)nc(SCC(=O)N3CCCCC3)c1C2 31.6 µM [inhibitor, partial curve]
CC(C)c1ccc2c(c1)c(SC(C)(C)C)c(CC(C)(C)C(=O)O)n2Cc1ccc(Cl)cc1 35.5 µM [inhibitor, single point]
COc1ccc(-c2cc3ncc(C(=O)c4cc([N+](=O)[O-])ccc4O)cn3n2)cc1 31.6 µM [inhibitor, single point]
O=C(c1ccc2c(c1)N(Cc1c(F)cccc1Cl)C(=O)c1ccccc1S2)N1CCCC1 15.8 µM [inhibitor, partial curve, poor fit]
CC(C)CN(c1ccccc1)S(=O)(=O)c1nnc(NC(=O)c2ccco2)s1 25.1 µM [inhibitor, partial curve]
C=Cc1ccc(CSc2nc(-c3ccccc3C)nc3c2Cc2c(CO)cnc(C)c2O3)cc1 39.8 µM [inhibitor, single point]
COc1ccc(Cl)cc1NC(=O)CSC1=Nc2ccccc2C2=NC(CC(=O)NC3CCCCC3)C(=O)N12 (stereo not given) 20 µM [inhibitor, partial curve]

Potency, active:
Nc1c(S(=O)(=O)O)cc(Nc2ccc(Nc3nc(Cl)nc(Nc4ccc(S(=O)(=O)O)cc4)n3)c(S(=O)(=O)O)c2)c2c1C(=O)c1ccccc1C2=O 20 µM
CCN(CC)CCNC(=O)c1ccc2c(=O)n3nc(Nc4cccc(Cl)c4C)sc3nc2c1 50.1 µM
O=C(CSc1nc(-c2ccc(F)cc2)nc2c1Cc1ccccc1O2)Nc1cccc(C(=O)O)c1 31.6 µM
Cc1cc2c(C(C)C)c(O)c(O)c(C=O)c2c(O)c1-c1c(C)cc2c(C(C)C)c(O)c(O)c(C=O)c2c1O 31.6 µM

Potency, inactive:
CCc1ccc(CNC(=O)c2cnc3sc(N(CC)CC)nn3c2=O)cc1
COc1ccc(-c2nc(CSCC(=O)N3CCN(c4cccc(C)c4C)CC3)c(C)o2)cc1OC
Cc1cccc(C)c1NC(=O)CS(=O)(=O)c1nc(-c2ccc(Cl)cc2)cn1-c1ccccc1
Cc1ccc(S(=O)(=O)N2CCCC2C(=O)Nc2ccc(Br)cc2)cc1 (stereo not given)
CCc1ccc(OCC(=O)N(Cc2ccc(Cl)cc2)C2CCS(=O)(=O)C2)cc1 (stereo not given)
CCCCSCCCNC(=O)c1cn(CC)c2ccc(S(=O)(=O)N(C)C3CCCCC3)cc2c1=O
O=C(CSC1=Nc2ccccc2N=C(c2ccc(F)cc2)C1)Nc1cccc(C(F)(F)F)c1
Cc1ccc2c(c1)c(=O)c(C(=O)c1ccccc1)cn2Cc1ccccc1F
Cc1cccc(-c2nc(CCNC(=O)COc3ccccc3)cs2)c1
Cc1ccc(C(=O)c2cn(Cc3cc(C)ccc3C)c3nc(C)ccc3c2=O)cc1
Cc1ccc(CN(Cc2ccco2)C(=O)c2ccccc2Br)o1
Cc1ccc(C2CCN(C(=O)c3cnn(-c4cccc(Cl)c4)c3C3CCN(C(=O)OC(C)(C)C)CC3)C2)cc1 (stereo not given)
